Laboratory results published in the supplement of paper PMC4967469.
pIC50: −log10 of the molar value. IC50 is the fitted dose that halves viability relative to control wells, and lower means more sensitive; a limit (>, <) means that the fit lies beyond the doses tested. AUC, from the same fit, is the share of area under the viability curve across the 256-fold dose range; the more sensitive the line, the further below 1. For some of these results: An inferred top dose is not printed in the source and was worked back from the curve model. For some of these results: Where an entry number is given, a second screen of the drug exists; the two often differ.

Columns and labels:
Assay in all cases: Viability of human cancer cell lines after 72 h of drug (GDSC screen)
QL-X-138 = compound: C=CC(=O)Nc1cc(-n2c(=O)ccc3cnc4ccc(-c5cn[nH]c5)cc4c32)ccc1C [QL-X-138]; settings: top dose 10.24 µM; top dose inferred
Description: (§1)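 Human cancer cell lines in 384-well plates, medium with 10% serum, drug for 72 h over a 256-fold dose range (nine 2-fold or five 4-fold steps up to the top dose). Adherent lines were fixed and stained with the nucleic acid dye Syto60, suspension lines read with resazurin; signal relative to control wells, capped at 0 and 100%. One two-parameter sigmoid per drug and line, fitted in a mixed model over all curves with the slope shared within a line.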

ABT-888 = compound: C[C@]1(c2nc3c(C(N)=O)cccc3[nH]2)CCCN1 [ABT-888]; settings: top dose 5 µM; top dose inferred
Description: as §1

KU-55933 = compound: O=c1cc(-c2cccc3c2Sc2ccccc2S3)oc(N2CCOCC2)c1 [KU-55933]; settings: top dose 10 µM
Description: as §1

MPS-1-IN-1 = compound: COc1cc(N2CCC(O)CC2)ccc1Nc1cc(Nc2ccccc2S(=O)(=O)C(C)C)c2cc[nH]c2n1 [MPS-1-IN-1]; settings: top dose 20 µM; top dose inferred
Description: as §1

Zibotentan = compound: COc1nc(C)cnc1NS(=O)(=O)c1cccnc1-c1ccc(-c2nnco2)cc1 [Zibotentan]; settings: top dose 20 µM; top dose inferred
Description: as §1

CHIR-99021 = compound: Cc1cnc(-c2cnc(NCCNc3ccc(C#N)cn3)nc2-c2ccc(Cl)cc2Cl)[nH]1 [CHIR-99021]
Description: as §1

GSK269962A = compound: CCn1c(-c2nonc2N)nc2cnc(Oc3cccc(NC(=O)c4ccc(OCCN5CCOCC5)cc4)c3)cc21 [GSK269962A]; settings: top dose inferred
Description: as §1

(5Z)-7-Oxozeaenol = compound: COc1cc(O)c2c(c1)/C=C/C[C@H](O)[C@H](O)C(=O)/C=C\C[C@H](C)OC2=O [(5Z)-7-Oxozeaenol]; settings: top dose 10 µM; top dose inferred
Description: as §1

CMK = compound: Cc1ccc(-c2c(C(=O)CCl)n(CCCO)c3ncnc(N)c23)cc1 [CMK]; settings: top dose 4 µM; top dose inferred
Description: as §1

Cytarabine = compound: Nc1ccn([C@@H]2O[C@H](CO)[C@@H](O)[C@@H]2O)c(=O)n1 [Cytarabine]; settings: top dose 2 µM
Description: as §1

CP466722 = compound: COc1cc2ncnc(-n3nc(-c4ccccn4)nc3N)c2cc1OC [CP466722]; settings: top dose 16 µM; top dose inferred
Description: as §1

Thapsigargin = compound: C/C=C(/C)C(=O)O[C@H]1C(C)=C2[C@H]([C@@H]1OC(=O)CCCCCCC)[C@@](C)(OC(C)=O)C[C@H](OC(=O)CCC)[C@@]1(O)[C@H]2OC(=O)[C@@]1(C)O [Thapsigargin]; settings: top dose 0.512 µM; top dose inferred
Description: as §1

ABT-869 = compound: Cc1ccc(F)c(NC(=O)Nc2ccc(-c3cccc4[nH]nc(N)c34)cc2)c1 [ABT-869]; settings: top dose 1.024 µM; top dose inferred
Description: as §1

[1] = top dose 2.56 µM, screen: GDSC drug entry 154
[2] = top dose 10 µM, screen: GDSC drug entry 1241, top dose inferred
[3] = top dose 2.5 µM, screen: GDSC drug entry 127
[4] = top dose 5 µM, screen: GDSC drug entry 1192

| Cell Line | AUC (QL-X-138) | pIC50 (QL-X-138) | AUC (ABT-888) | pIC50 (ABT-888) | AUC (KU-55933) | pIC50 (KU-55933) | AUC (MPS-1-IN-1) | pIC50 (MPS-1-IN-1) | AUC (Zibotentan) | pIC50 (Zibotentan) | AUC (CHIR-99021; [1]) | pIC50 (CHIR-99021; [1]) | AUC (CHIR-99021; [2]) | pIC50 (CHIR-99021; [2]) | AUC (GSK269962A; [3]) | pIC50 (GSK269962A; [3]) | AUC (GSK269962A; [4]) | pIC50 (GSK269962A; [4]) | AUC ((5Z)-7-Oxozeaenol) | pIC50 ((5Z)-7-Oxozeaenol) | AUC (CMK) | pIC50 (CMK) | AUC (Cytarabine) | pIC50 (Cytarabine) | AUC (CP466722) | pIC50 (CP466722) | AUC (Thapsigargin) | pIC50 (Thapsigargin) | AUC (ABT-869) | pIC50 (ABT-869) |
| --- | --- | --- | --- | --- | --- | --- | --- | --- | --- | --- | --- | --- | --- | --- | --- | --- | --- | --- | --- | --- | --- | --- | --- | --- | --- | --- | --- | --- | --- | --- |
| A253 (head and neck, adherent) | 0.82 | 5.25 | 0.989 | < 5.30 | 0.979 | < 5.00 | 0.986 | < 4.70 | 0.988 | < 4.70 | 0.984 | < 5.59 | 0.983 | < 5.00 | 0.989 | < 5.60 | 0.988 | < 5.30 | 0.678 | 5.71 | 0.916 | < 5.40 | 0.816 | 5.97 | 0.87 | 4.85 | 0.194 | 8.39 | 0.985 | < 5.99 |
| A388 (skin, adherent) | 0.772 | 5.34 | 0.981 | < 5.30 | 0.917 | < 5.00 | 0.945 | < 4.70 | 0.982 | < 4.70 | 0.98 | < 5.59 | 0.981 | < 5.00 | 0.967 | < 5.60 | 0.973 | < 5.30 | 0.681 | 5.66 | 0.804 | 5.63 | 0.641 | 6.49 | 0.758 | 5.20 | 0.27 | 8.20 | 0.983 | < 5.99 |
| A498 (kidney, adherent) | 0.876 | < 4.99 | 0.963 | < 5.30 | 0.963 | < 5.00 | 0.976 | < 4.70 | 0.977 | < 4.70 | 0.827 | < 5.59 | 0.911 | < 5.00 | 0.953 | < 5.60 | 0.874 | < 5.30 | 0.469 | 6.31 | 0.973 | < 5.40 | 0.817 | 5.71 | 0.888 | < 4.80 | 0.909 | < 6.29 | 0.97 | < 5.99 |
| A704 (kidney, adherent) | 0.985 | < 4.99 | 0.986 | < 5.30 | 0.922 | < 5.00 | 0.986 | < 4.70 | 0.988 | < 4.70 | 0.903 | < 5.59 | 0.843 | 5.17 | – | – | 0.908 | < 5.30 | 0.721 | 5.59 | 0.861 | 5.49 | 0.879 | 5.71 | 0.933 | < 4.80 | 0.49 | 7.52 | 0.989 | < 5.99 |
| ALL-PO (lymphoblastic leukaemia, suspension) | 0.536 | 6.09 | 0.892 | < 5.30 | 0.689 | 5.66 | 0.736 | 5.21 | 0.979 | < 4.70 | 0.892 | < 5.59 | 0.946 | < 5.00 | 0.938 | < 5.60 | 0.939 | < 5.30 | 0.76 | 5.43 | 0.847 | 5.49 | 0.657 | 6.46 | 0.384 | 6.33 | 0.419 | 7.72 | 0.543 | 7.07 |
| AM-38 (glioma, semi-adherent) | 0.541 | 6.08 | 0.978 | < 5.30 | 0.967 | < 5.00 | 0.795 | 5.02 | 0.978 | < 4.70 | 0.988 | < 5.59 | 0.987 | < 5.00 | 0.944 | < 5.60 | 0.97 | < 5.30 | 0.769 | 5.41 | 0.988 | < 5.40 | 0.832 | 5.88 | 0.775 | 5.19 | 0.411 | 7.74 | 0.988 | < 5.99 |
| AMO-1 (haematopoietic neoplasm, suspension) | 0.766 | 5.49 | 0.991 | < 5.30 | 0.989 | < 5.00 | 0.811 | 5.05 | 0.991 | < 4.70 | 0.982 | < 5.59 | 0.866 | 5.16 | 0.981 | < 5.60 | 0.877 | 5.42 | 0.695 | 5.70 | 0.971 | < 5.40 | 0.933 | < 5.70 | 0.779 | 5.25 | 0.233 | 8.21 | 0.987 | < 5.99 |
| ARH-77 (myeloma, suspension) | 0.626 | 5.85 | 0.976 | < 5.30 | 0.951 | < 5.00 | 0.909 | < 4.70 | 0.981 | < 4.70 | 0.987 | < 5.59 | 0.978 | < 5.00 | 0.986 | < 5.60 | 0.956 | < 5.30 | 0.737 | 5.54 | 0.887 | < 5.40 | 0.944 | < 5.70 | 0.657 | 5.57 | 0.64 | 7.11 | 0.98 | < 5.99 |
| BB49-HNC (head and neck, adherent) | 0.976 | < 4.99 | 0.978 | < 5.30 | 0.923 | < 5.00 | 0.978 | < 4.70 | 0.975 | < 4.70 | 0.971 | < 5.59 | 0.851 | < 5.00 | 0.305 | 7.46 | 0.18 | 7.67 | 0.385 | 6.58 | 0.966 | < 5.40 | 0.823 | 5.73 | 0.972 | < 4.80 | 0.939 | < 6.29 | 0.969 | < 5.99 |
